This is one part of the list. At the low end of the ranking the order means little.
target: T1, GST-Rok (full length) (UniProt O34857); assay: protein binding microarray; conditions: Rok is a gene silencer of Bacillus subtilis; high values mean tight binding; most listed sequences are background and not binding sites; double strand, one strand shown;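 note: rank score from −0.5 (least bound) to 0.5 (best bound)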
T1 sequence: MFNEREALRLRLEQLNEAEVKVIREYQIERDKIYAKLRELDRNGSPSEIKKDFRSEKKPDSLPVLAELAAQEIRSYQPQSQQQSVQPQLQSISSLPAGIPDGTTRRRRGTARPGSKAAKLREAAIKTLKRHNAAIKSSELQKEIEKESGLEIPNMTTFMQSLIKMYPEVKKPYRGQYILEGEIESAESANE

Sequence | binding signal [E-score]
CGCTGGCC | -0.361
AGGTTGCA | -0.143
CGGGTCAG | -0.295
CTACGCCC | -0.384
AAAAATAC | 0.32
GTCGCAGA | -0.125
CCCCAAGA | -0.192
CAGAGGGA | -0.28
AATGCCCG | -0.226
AAGATAAT | 0.286
GCGCCGGA | -0.0297
AATTAGAT | 0.229
GTAACCTA | 0.125
GTCCGTAA | -0.0162
GGAATGCC | -0.253
AGAGTGCA | -0.104
GAGTCTCC | -0.174
AGCATATC | 0.00918
GGGTCGGA | -0.409
GTACTTGA | 0.11
CACCTTGC | -0.217
AAGTTCCG | 0.102

Sequence | binding signal [E-score]
AGGTAAAC | 0.147
CAACTAAG | -0.045
ACTAAAGA | 0.0421
GGAGATGA | -0.199
CGCAGATA | 0.112
AGTAGAGC | -0.0815
ACTTCACA | -0.0126
GCTTAGAA | -0.0146
CATTACAC | 0.116
ACGTTCGA | -0.0497
ACTTTGTG | 0.00735
CTAAAAGC | -0.0522
CTTTTCAC | -0.112
GGTATACA | 0.187
CCAACTTC | 0.0462
ATCCCGGC | -0.185
AGTGATAC | 0.231
ACACAACC | -0.0164
CAGAGCTA | 0.0298
GCACAGCA | -0.123
ACGGTACT | 0.211
CAGTTAGG | -0.0571

Sequence | binding signal [E-score]
AGGTTGTG | -0.054
ATTACCGC | 0.245
ACCTCGAA | 0.178
CTGAACCC | -0.24
CGTCCTTA | 0.0174
GCATGCCC | -0.322
CTGCCAGC | -0.163
GTGTAATA | 0.249
ATACGATC | 0.0843
CAGACTAA | -0.0315
CGATACGC | -0.0456
GGGCGCCC | -0.322
CCTTTGCG | -0.299
CCTTCGAA | -0.0681
CACAGTAA | 0.146
GCTTTTAC | 0.123
CCTCCAGC | -0.262
AAGGTATC | 0.167
AGCTCGAT | -0.0461
ATATTGGG | 0.00137
AGCGCAAC | 0.0919
AAAAGGAT | -0.0221

Sequence | binding signal [E-score]
AACTGCGA | 0.0185
ATATGGTC | 0.129
GCCACGCA | -0.195
ACGCCCAG | -0.35
ATTTCCCA | 0.0391
CGTTTAAC | -0.0381
CCGCTAAA | 0.0838
TCGATCGA | 0.077
AGAACCAG | -0.141
AAACGGAT | -0.0449
ACTCGTCT | 0.0787
AACCTGAC | -0.127
GGCGTTTA | -0.0419
TAAAGACA | -0.0458
AGAGCGGC | -0.236
ATGGTAAC | 0.214
CCAGTAAG | -0.205
GCCGGGTA | -0.231
GGTTGCCA | -0.117
AATCACGT | 0.164
CATCCCGC | -0.123
AGTTGGAC | -0.141

Sequence | binding signal [E-score]
ACGTCTTA | 0.00235
CCTAGTCG | -0.13
CACGGCAG | -0.197
ATACGTCA | 0.242
CATTGCTC | -0.0581
CGGCAGCA | -0.221
GAGTCAAA | 0.0563
GGTAGCTA | 0.341
ATATCCCC | -0.13
ATTGGGAC | -0.13
ACAGACAA | 0.126
CACCTTTC | -0.0214
GGAAATCA | 0.104
ATGGTCGC | -0.0576
AATGCATT | 0.216
CGTAAGTA | 0.192
CCAACCGC | -0.238
CTGATCTA | 0.118
CGTTAGCC | -0.117
ACTTGCAC | 0.141
CGCAGTAA | -0.0838
